Here are results for 72 sequences from publication PMC10726135.

The list shows a part of the results. At the low end of the ranking, values are background and their order means little. The protein was read in a cell extract, so binding may be indirect.

For the assay, the target named is T1, HNF4alpha8 (COS-7 nuclear extract) (UniProt P41235-5).
T1 sequence: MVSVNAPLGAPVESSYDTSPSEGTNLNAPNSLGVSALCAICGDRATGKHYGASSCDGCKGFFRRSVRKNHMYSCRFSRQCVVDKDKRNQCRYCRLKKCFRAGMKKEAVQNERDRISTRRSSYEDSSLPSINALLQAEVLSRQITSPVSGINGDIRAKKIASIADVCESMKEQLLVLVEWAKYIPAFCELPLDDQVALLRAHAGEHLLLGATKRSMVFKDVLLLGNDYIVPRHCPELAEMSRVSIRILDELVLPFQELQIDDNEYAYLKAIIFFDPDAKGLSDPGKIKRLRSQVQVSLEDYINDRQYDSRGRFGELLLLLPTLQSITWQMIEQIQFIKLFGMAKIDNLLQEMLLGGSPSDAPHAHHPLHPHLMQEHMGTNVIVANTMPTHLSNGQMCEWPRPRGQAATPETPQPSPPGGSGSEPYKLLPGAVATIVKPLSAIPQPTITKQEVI
Kind of assay: protein-binding microarray. The following applies: COS-7 nuclear extract on double-stranded Agilent 4x180k PBM; binding buffer, salt, pH and temperature not given; high values mean tight binding; double strand, one strand shown; sequences stand for … in …GCCTAGGGAGATTAGAGTATCGGTCGA
In the case of GGACCGCAGGGGGCTCCCGGACCCTGACTC, the binding signal (log2 normalized intensity) worked out at 1.43.
To CTTTTGGTATGCAAGGCATGGTGCTTCGCA belongs -0.0292.
To GGTTGGCTCTGAAGCAAGGATCAAAGTCAC belongs 2.72; to TTATCTACCAGGATGTGTGATCTTGGGTAA, 1.1; to GAGAGTCCACTCTCCTATCTTTCCCTCCAC, 0.358.
Take AATCCTCTGGTCTTTGCCCCAGCTCGCTCA: the binding signal (log2 normalized intensity) is 1.95.
To TCTAAGATTGGCCCTGATAATCAATCCAGC belongs -1.17.
Take GTAGTGGGGAGGGCATGGACTTTGGAATTA: the binding signal (log2 normalized intensity) came to 8.06.
As to CTTTGAACCCCACACCTCCCTTGCACCAGT, the binding signal (log2 normalized intensity) came to 3.35.
To AAACCAACCTTTGATCATTCCTGCACAGGA belongs 3.8.
To TCAAGGCAACTTTGGGCCAAATATTTATGG belongs 0.434; to AAAGCTGTCTACAAACACAGAAGTGGACCT, 3.96; to CTGATAGCATAAAGCTAGGAGACAACACCT, -1.23.
To CTTACGCCGGCCCGGTGCGCTGGCCTTGCT belongs -1.28; to AAATTCCAGCAGGAATTGATATGTTAGTCT, -1.41; to CTCTGCAAATTTGCCTTGTCCTTAGACAGT, 1.45.
TTTTGAGTTTCTGATTAGCCTTTCCAAAGG: the binding signal (log2 normalized intensity) is 1.53.
To TCTCAGGGGCCTTGCAATGAGGCGACATCA belongs -1.16; to CCCCTGAAATATCATTATCTTGATCAGAAA, 0.622.
Next, TGGGTGGATTTGGAGATCAGAGTCCAGCTG: 3.33.
Next, AGAGCTTAAAAGCCCAACACGGGCGAAAAA: -1.34; ACAGGAGCCCAGAGACAGTGGAATCTACAG: -1.36.
In the case of TAGGACCTTTGAACCAGAGAAGATTCCAGA, the binding signal (log2 normalized intensity) stood at 3.15.
Next, TGCTGGGCCCATTTTCCCATGGTCTGTAGA: -1.07; GACCAAGGGTCAGTTTGAAATTAGGCAATA: 1.81.
Next, ACCTCCCCCCACACCATTAGAGAACATGTA: 4.96; CATGGATTTAGATAAGAGGCAGTCCTGGCT: -1.38; CTTTGTTCTCCGGGTTCTGCGCAGGGAGGA: -0.809.
Next, ATTTTACTCACCCCTTGCTGAGTGGAAAAA: 0.957.
For the sequence CCTTTGGCCTTTACCTGTTACTTATAAATA, the binding signal (log2 normalized intensity) was found to be 1.05.
Next, CCTTTCTACTGCCAGCCAGGGCCACCCATC: 0.592; CCTCTCAAACAAAAATGATGCTACTGGAGG: -1.41; TAGAACCGGGGAGATACTGTAAACCAGCAG: -1.29.
To ACTGAAAAAGGGGACCGGCCTTTCCCGGCT belongs -1.3; to CTGACCTCAAGTGACCTTTGACCTCTGGCC, 11.2; to AACCTCCGCGATTCCCGCCGCCTCCGCTGG, -1.25.
Next, AGGAGTGGTCCTGCTCAAAGGGGAAAGAGG: -1.2; CTTTCTAAAGTATGTGGTGGGTGTGGTGAT: 1.79.
As for CCATTAAACATCAGTTTGCATATGCCACAG, the binding signal (log2 normalized intensity) was -0.0841.
To CATTGCTCAGACAGGGCAAAGGTGCCAGGT belongs 1.07.
Turning to GGCTCCCTGGGGTTAAAATGTTTACTGAAG, the binding signal (log2 normalized intensity) worked out at 0.937.
On to CAGAGAGAAGCCACTGCGACCTTTGCCCTC, for which the binding signal (log2 normalized intensity) is 10.
Next, CAGAGATCTAGGTGAGGGATGAGGACTTTG: 2.58.
TCCAGGGTCACGTGCCGCTGCGGGTCACGT: the binding signal (log2 normalized intensity) is 2.34.
Next, TCCCAAGGCAGCAATCCCCTGCAATACAGC: 0.796; ACCACACCACAGCGGGGCCTCTGTGTGGGG: -1.02; CTTGGGGTCAAAGTACATCCCCTAAAACAT: 6.61.
To CCACTTGGGCTTCCTCATCTGTTTATCTTT belongs 1.74; to GGGGTGACCAGATTAATTACCCACAGGTGT, -1.28; to TAATCCCTGAGCCTGGACCTTGGAATGTCA, 3.99.
To CGCAGGGCGGACAGCGCCGCCACCCGGTTG belongs -1.25; to GACATGGCTGTATGTGACATGGACATTCTA, 0.165; to GGTGTAAGCTCTGGAGTCCAAAGGTCAGCA, 8.69.
In the case of TAGTATCACTGTGAAGACGTTAGGGGGCAG, the binding signal (log2 normalized intensity) amounted to 1.18.
Next, TTTCATGTTGTTTAGTCATGCCGAACTTTC: 1.68; CAGGACCTCGGCTCGGCCCCAGTCCCCCGG: 3.75; TCGCCACTACAAAGGGAATCAGGTTTTCAG: -1.27.
As for CACATAATGATACCAACAGGCTTAACATAA, the binding signal (log2 normalized intensity) was -1.32.
To TAAAGAGACAAAAGTCCGGAATTTCCTCCT belongs -0.869; to AGTTTTTCCCATTCATAAAATTACGCCACA, -1.35.
To GCTATCTTATCTTTGACCTTACCAGCCCAC belongs 2.94.
Next, CGCCTGAACTTTGATCAGCATTCAAATGAG: 4.5; AGGCGTATCTTTCTCAAGGACCTAGAGCTA: -1.33; GTATTTTTGCAATCCTCCACTCTCCAAAAT: -1.32.
Regarding CCAGCACTGTCAGCAGGGGGATCCACTTCC, the binding signal (log2 normalized intensity) was -1.38.
Next, GACAAAGCACAATCAAAGCAATGGCTACCA: -1.35; GCGCGGCGCGCTGGGAAGGCTCGTTCTCGC: -1.24; CCCAGGAGCACAAATAACATTCCTAACATT: -1.2.
Turning to GTTACTGGAGGCTGGAGCTCCTGGGCCAAA, the binding signal (log2 normalized intensity) was -1.4.
Next, TCTGGAAGGAAGGAGGGAGGCAGGGAGACA: -1.38; TATCAGCAAGGAAATAAAAGAGCCTGAGCC: -1.19; CTGCAGATTGACTCAGGCATTCTGACCTTT: 7.32.
